± gives the standard deviation of the averaged measurements. The list shows a part of the results.
Tested on: PfAP2-G AP2 domain (GST-tagged)
Assay: gcPBM binding intensity (ln(normalized median fluorescence intensity)); higher = stronger DNA binding
How it was run: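 DNA-binding domains from P. falciparum, fused to GST and produced in E. coli, were put on an Agilent 4 × 180k double-stranded probe array for 1 h in 1× PBS holding 1% milk, 0.2 mg/ml BSA, 0.5% salmon testes DNA and 0.03% Triton X-100. Probes were primer-extended, 36 bp long and drawn from intergenic genomic regions, with negative controls included. After Alexa488 anti-GST antibody detection and a 488 nm scan, binding intensity was set as the highest Masliner-normalised natural-log median intensity across replicate spots of either probe orientation.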

Sequence | gcPBM binding intensity (ln)
TTTTTTTTTTTTGGTAGTACATAAATATTTTATGGA [XGTACX_site6851] | 12 ± 1.7
ACGTTGCGACGCAAGGTGCTTATTTTCTTATAAATA | 9.765 ± 0.035
AAAAAAAAAAAGATAAATACAAGTTACACAAAAAAA [GTGCAC_negctrl_site664] | 9.9 ± 0.057
GCTCATTGAAATTATACACACCAAATATATAAATAT [CACACA_site5385] | 10.1 ± 0.23
TGTGAATATATCTTTAAAAAGGATAAATAATAATTT [CACACA_negctrl_site507] | 9.7 ± 0.16
AACAAATTTTTTATTAAACACACAAACATATATATA [CACACA_site8588] | 9.925 ± 0.035
TATGAATATTGCATGTGTACCTATTATCCTTTTAAA [XGTACX_site4311] | 11.1 ± 0.7
TTTTTGTATCCTTTTAATATTAAATAAAAGGAATGT [CACACA_negctrl_site1468] | 10.2 ± 0.24
TTAATGTTTGAAAGAGTGCACATAACAAAAAAAAAA [GTGCAC_site9623] | 10.4 ± 0.21
TAATTAAAAAATGAATAAATGAATAAATAAATAAAT [CACACA_negctrl_site838] | 9.49 ± 0.22
ATATAAAATAAAAAAAAAAAAAAAAAAAAAAAAAAA [CACACA_negctrl_site1234] | 9.56 ± 0.099
AATGATCAGATATACACACACACAAAAAAAAAAAAA [CACACA_site7806] | 9.96 ± 0.26
AATAAAAAAAAATTCACACAAAGTTAGATTAACTAT [CACACA_site4224] | 9.63 ± 0.099
GTAAATAAATAAATAAATAAATATATATATATATAT [CACACA_negctrl_site1737] | 9.88 ± 0.47
AAGACAAATATGAAGAGTACATTTATATAAAAATTA [XGTACX_site5142] | 11 ± 0.67
CTACAATATCTTTAAAGTACTTTTATATAACTACCA [XGTACX_site6119] | 11.1 ± 0.61
AAAACAAACAGACACACACACATATTTATATTTATA [CACACA_site7681] | 10 ± 0.17
TTATATTAAACAAACACACACATATAAATATAAATA [CACACA_site7174] | 10.05 ± 0.021
TTTATATTTAAAAGGATGCACTACAAATTCTAAATA | 10.3 ± 0.3
TATCCTTATATTTGCACACACACACCCTAAAATGAA [CACACA_site1029] | 10.3 ± 0.38
ATATATATATAATGAAGTACGAAAAAATAAGAAATG [XGTACX_site4001] | 10.9 ± 0.55
ACCTCATAATATTTAACACACAAAATTATATGTATG [CACACA_site1704] | 9.9 ± 0.014
ATTCTAAATAAATGTACACACAAAAATAAATGTATA [CACACA_site1732] | 11.4 ± 0.91

Sequence | gcPBM binding intensity (ln)
ATATATTTTTATGTAGTGCATTTAAATAATAAATGC | 10.2 ± 0.3
ATTTTTTCCAATTCTTTACCTTAGAAAGGTGTTCAA [CACACA_negctrl_site1401] | 10.1
ATTAGAAAATAAAATAATAAATAAAATAAAAAAAAA [CACACA_negctrl_site409] | 9.595 ± 0.078
ATAAAAACATAAAAATGTACATATATATATATATAT [XGTACX_site7165] | 11 ± 0.58
TAATTTTATATAAATTGTACAAAAATATTTTATTAA [XGTACX_site7166] | 10.8 ± 0.42
TAAAATATACAAATTTGTACATATATATGTATGTAT [XGTACX_site1127] | 10.9 ± 0.38
TGCAGGTGTTATTCACGTACGCATTTGATTAAAAAA [XGTACX_site7743] | 11.1 ± 0.76
AAGGAATATGTATATACACACAGGTACATATTTATA [CACACA_site6344] | 11.1 ± 0.67
ATAAAGAATATAAATACACACTTAAATATATATTAT [CACACA_site6071] | 9.79 ± 0.12
TTTTATTTTATTCAATTTTTACTTTTATAAAAATAT [GTGCAC_negctrl_site578] | 10.1 ± 0.23
AATATTAGGTTATGTAGTACATAACAATAATTATAC [XGTACX_site5733] | 11.5 ± 0.94
GTGTTGGGAAAAGGCATGCACTTTTTTTTTTTTTTT | 10.6 ± 0.31
ATGTATATGCAAACATGTACATATATAAACATATAT [XGTACX_site4159] | 11.1 ± 0.67
TTCACTATACAAAGGTGTACTTAATTTTGTCCCATT [XGTACX_site7483] | 11.4 ± 0.76
AGTTATTACACACAAACATGCATTAATATCAAAAAA [TGCATGCA_site63] | 10.07 ± 0.064
CACAAAAATTTATACACACACATATAAAATATAGAT [CACACA_site6218] | 10.25 ± 0.071
ATTAGGTATTTTTTTTGTACATATTATATAATGTGA [XGTACX_site3815] | 10.9 ± 0.43
AATTCACATGTGAACTAAAAGAATATTATATATATA [CACACA_negctrl_site1632] | 9.92 ± 0.071
AAATATATATATAGTACATGCAGTAGATAATTTAAT [TGCATGCA_site299] | 10.8 ± 0.56
ATTTATAAAATTAATGCACACATCAGCATTTATAAA [CACACA_site1025] | 9.94 ± 0.19
TAAATACATAGATGTACACACATTACAGATGTACAT [CACACA_site4692] | 11.7 ± 0.98
TATAAAATAAAAAATAAATATCTATATATATATATA [TGCATGCA_negctrl_site351] | 9.83 ± 0.64
ATAAAGCACACCGACACACACATATTTATATTTATA [CACACA_site6620] | 10.2 ± 0.13

Sequence | gcPBM binding intensity (ln)
TTGTGTTATCCTTTTTTAGATCAACTATTTTTATTC [CACACA_negctrl_site145] | 10.01 ± 0.078
ACCGTTTTTGTGTAATGTACAAAATTTCTGACAGTG [XGTACX_site4999] | 10.8 ± 0.3
TTTTTTTTTTTAAGTTCACACATAAATTCGATTTAC [CACACA_site5057] | 10.1 ± 0.26
ATGTATTTAATAAGAACACACATATATTTAATTTAA [CACACA_site5606] | 9.79 ± 0.042
ATAATTTGTAAAAGGAGTACAAAACCATACTTTTTT [XGTACX_site6076] | 11.6 ± 1.1
AAAGGAAAATTAAAAAGTACACATTTGAAAAAAAAA [XGTACX_site2724] | 11.6 ± 0.95
AAAGAAAAAGAAAAAGAAAAATTAGAATATAAAATA [CACACA_negctrl_site792] | 9.22 ± 0.4
AATGATCATATATACACACACACAAAAAAAAAAAAA [CACACA_site4009] | 9.95 ± 0.3
TTTATACATTTATATTGTACTAATTCGATTTTATAT [XGTACX_site5424] | 11 ± 0.63
CATTTATATAAATACACACACACAAAAAAAAAAAAA [CACACA_site5459] | 10.1 ± 0.47
TAATAATAAAAAAATAGTACATAAATAAAAATAATA [XGTACX_site4774] | 11.3 ± 0.69
ATAAGAAATGTAACTTGTACATAAGGATATATATTT [XGTACX_site236] | 11 ± 0.49
GGATTTTAATGAACACGTACATAAAATTAAATAAAT [XGTACX_site7023] | 11.4 ± 0.9
TAATTAATTTCTTTACGTACATAATTAATATATATA [XGTACX_site7372] | 11.2 ± 0.78
ATATATATGTATAATCGTACAGTTAACGTATTCTTA [XGTACX_site5649] | 11.1 ± 0.68
AAACAGATAAATAAAAGTACACATTAAAAGGTAGCA [XGTACX_site4150] | 11.5 ± 0.83
GGGAGGATAGTTCACAGTACCCAGGAAATCTACGGA [XGTACX_site2553] | 10.9 ± 0.53
GGTTCATAATATGGTTGTACATAAATATATATATAT [XGTACX_site7583] | 11.3 ± 0.71
TAACAAGGTTTATATGCATGCAAACATAACCAAAAA [TGCATGCA_site824] | 10.06 ± 0.042
AATGGGTAAACATACACACACACATCTATATTTATA [CACACA_site7025] | 9.85 ± 0.11
TATAAAAGACTAAATATTATAGAAATATAAATATAA [TGCATGCA_negctrl_site237] | 9.68 ± 0.12
TACTATATCATTTATTGTACAATATTTCTTCAGAAA [XGTACX_site1008] | 11 ± 0.52
CTTTGCCTTAAAAAGGAACACACATGCTTTTTTTAG [CACACA_site8219] | 9.975 ± 0.035

Sequence | gcPBM binding intensity (ln)
ACAAAATTTACAAAATGTACAAAATATACAAAATAT [XGTACX_site6465] | 10.5 ± 0.33
TATATATATATATATGTGCGCATATATTTTTTTGTA [GTGCAC_site9983] | 10.2 ± 0.31
TATTTCTCACTGTATGGTACAGATATAAATTTTTAT [XGTACX_site8776] | 10.7 ± 0.37
AATAATATACATATATATATTATATTGTAATTTTGT [TGCATGCA_negctrl_site1] | 9.705 ± 0.021
ACTAGACAAAATATAATGCACACTATTATTTTTATT [CACACA_site2726] | 9.995 ± 0.035
CATGAGGTATAAAAGGTGCAAATTAATGAGAACATT | 10.2 ± 0.21
TTATATCAAGGGAATGCATGCATATCGTTTTGTATT [TGCATGCA_site327] | 9.69 ± 0.25
TATTCTTATATATATACACACACAAAATATCTACAA [CACACA_site8144] | 10.1 ± 0.16
TTGCATTGATCAAACATACACACATGGTTAATAAAA [CACACA_site2084] | 10.2 ± 0.22
TAATTATTATTAAATACACACACATACCTCCATGTT [CACACA_site9134] | 10.09 ± 0.099
AAAAAAAAAAAATAGGTGCGTGTTACTTTTGTATGC [GTGCAC_site9524] | 9.935 ± 0.078
CACAAATAAATATTCACACATATATGTCTTATATAT [CACACA_site5323] | 9.925 ± 0.007
ATTACAATAAATTCGTGTACATGATACCGCCGCTAC [XGTACX_site8997] | 11.3 ± 0.88
ATCAAATTTTTGTTATGTACACAATCATTTAATAAA [XGTACX_site810] | 11.3 ± 0.74
ATGAAATATGCACAGTGTACTTTTATGAGGAACATA [XGTACX_site426] | 11.4 ± 0.81
TTTTTAATACAAAAAAAATAATATGTTATATTTCAA [CACACA_negctrl_site35] | 9.48 ± 0.11
TATATATATATATATACACACACACCCACCAAAGCG [CACACA_site7904] | 10.5 ± 0.49
TGCCCTTTGGTTATAACACACATGCACACGTAAATA [CACACA_site7750] | 10.3 ± 0.18
AATTAACCGTGACACACACACATATAAATATAAATA [CACACA_site7790] | 10.3 ± 0.47
GGGAATATATAAGATACACACACAAATTAAATATAA [CACACA_site8898] | 10.2 ± 0.13
